± gives the standard deviation of the averaged measurements. This is one part of the list.
Each sequence was assayed on PfAP2-I AP2 domain 3 (GST-tagged) (assay: gcPBM binding intensity (ln(normalized median fluorescence intensity)); higher = stronger DNA binding).
Procedure, shortened: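 GST-tagged P. falciparum DNA-binding domains produced in E. coli were incubated for 1 h on an Agilent 4 × 180k array of primer-extended double-stranded 36-bp intergenic genomic probes with negative controls. Binding intensity is the highest Masliner-normalised natural-log median intensity across replicate spots of either probe orientation, with bound protein detected by Alexa488 anti-GST antibody at 488 nm.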

Row | Sequence | gcPBM binding intensity (ln)
1 | TCTATTTATATGTATTGTACAATATAGATGTGTATT [XGTACX_site5646] | 8.02 ± 0.47
2 | CCTAAATAATATCTATCACACACGCATATATACATA [CACACA_site8838] | 7.8 ± 0.64
3 | TTCTATATATAATATTGTACTTAATTATTTTATTTT [XGTACX_site2701] | 7.7 ± 0.47
4 | AGTGTATATAGAAACATACACACATATTAATTTTAC [CACACA_site3127] | 7.59 ± 0.45
5 | TAGCTGTTCAAAAAATGTACATATATAATATATATA [XGTACX_site5842] | 8.28 ± 0.46
6 | ATATATATGCATTCAAGTACAAAAATATATGTTAAA [XGTACX_site910] | 7.83 ± 0.52
7 | AAATTAAAAATAATTACACACATAGAAAAATTATAT [CACACA_site2275] | 7.92 ± 0.26
8 | GTAATACACAGACACACACACATACACATATTTATA [CACACA_site7313] | 8.27 ± 0.53
9 | ATATAATAACATAACACACACATGTATTTATAGGTG [CACACA_site359] | 7.8 ± 0.45
10 | ACATTATAATATTATTGTACTATATATATAATATAT [XGTACX_site2291] | 7.67 ± 0.42
11 | GATAATCAGAATGGGGTGCAAAGAAAAAAAAAAAAA | 10.7 ± 0.46
12 | AAAAAAAAAAAAAAAACACACATATATATATAATAT [CACACA_site1159] | 8.59 ± 0.58
13 | AAAAAAAAAAAAAAAAGTACATGCCATATATTTTCA [XGTACX_site4580] | 8.64 ± 0.4
14 | GCTAGTTCATAAAATTGTACAAAAAAAAAAAAAAAA [XGTACX_site2223] | 8.12 ± 0.7
15 | AAATAATCTATACACAACGTATAAGAATAATATATG [TGCATGCA_negctrl_site422] | 7.56 ± 0.54
16 | AATAGAAACATTTTACATGTATATATAATTTTTTTT [XGTACX_negctrl_site190] | 7.31 ± 0.51
17 | TAAATAATGTTAAACACACATACCGATATATAATTA [CACACA_site2711] | 7.62 ± 0.37
18 | TATACAGACAGACACACACACATATATATATATATA [CACACA_site1734] | 9.27 ± 0.37
19 | TATATATAAGAAAAAAGTACAGATATATATATATTC [XGTACX_site4788] | 8.06 ± 0.49
20 | AAATTTTCACTTCAAAAACACACGTATTTTTTTCCT [CACACA_site3813] | 8.05 ± 0.73
21 | TGTTATATTATAACTACACACGTATTATGTTATATC [CACACA_site839] | 7.65 ± 0.62
22 | TTTTAAGAAAAAAAATGTACACATGAAAATAGTGAA [XGTACX_site5898] | 7.88 ± 0.45
23 | AATTGTTAATGGTACGAACACACATATAAAGATGCA [CACACA_site2043] | 7.84 ± 0.67

Row | Sequence | gcPBM binding intensity (ln)
24 | AGAATTAAAATAATACGTACACACATGTATAATACA [XGTACX_site1878] | 7.9 ± 0.33
25 | ATTATATCTATAATATGTACATATTATAATATATAT [XGTACX_site3211] | 7.82 ± 0.32
26 | TGTACAATATAAGGAGCACACAAAAATGGATAAATA [CACACA_site8216] | 8.27 ± 0.58
27 | ACCTCTCATATGTTATAAACAAAATGAAAATTTCAT [XGTACX_negctrl_site303] | 8.12 ± 0.42
28 | ATTTTATTTTATTAAGTGCAAAAAAAAAAAAAGAAA | 10.2 ± 0.32
29 | ATATGGCATAAAACATGTACATGTTCATAAATATAT [XGTACX_site1924] | 7.96 ± 0.57
30 | GTGTGATGGTCCAATATACACACTTAAAAAAAAAAA [CACACA_site2426] | 8.02 ± 0.35
31 | TACTGTTATAAATGTGGTACTAATATTATACATATA [XGTACX_site5116] | 7.87 ± 0.32
32 | AATGGTCTTTTCAACACACGTACATAAAAATATTAT [CACACA_site2571] | 8.31 ± 0.33
33 | GTGGAATAATATATATGTACATATTTAAAATATTTA [XGTACX_site3499] | 8.05 ± 0.2
34 | ATTTTTTTACAAAAATGTACACATGAAATATGTAAT [XGTACX_site1372] | 7.8 ± 0.3
35 | TAAAAGTATATATATACACACATAAATATATCTGTA [CACACA_site4537] | 7.44 ± 0.28
36 | TGACAACATAGAGGGGCACACACATATATACATAAA [CACACA_site8550] | 8.25 ± 0.27
37 | TATTATTTTAGAATGCGTACTTATAAAATATTTTAT [XGTACX_site867] | 7.77 ± 0.38
38 | TTATATTAATAATAAAGTACAAAAAATCATATATAA [XGTACX_site799] | 7.7 ± 0.58
39 | TTATTGAACTTTTATAAAACCTGTATTATTATCTCT [CACACA_negctrl_site767] | 7.75 ± 0.69
40 | TATTTCTTATTACATACACACATATACATATATGAC [CACACA_site3201] | 7.99 ± 0.57
41 | TCCAGGCTACACTCTAGTACTCGTAGGGTTATGAGA [XGTACX_site4945] | 7.61 ± 0.52
42 | ATATATATATATATATGTACATATGTTAGGATCAAA [XGTACX_site8626] | 9.49 ± 0.43
43 | ATGACATATAAATATACACACATACGTAAGTATATT [CACACA_site5058] | 7.55 ± 0.4
44 | ACATAAGAATTTTTATGTACTCATAATATTTTATAT [XGTACX_site2398] | 7.71 ± 0.45
45 | TACATACTAAAAAAATGTACTTGTATTGTTTTTTTA [XGTACX_site8357] | 7.56 ± 0.41
46 | GAAATATTTGTAAAAACATGCATGGTACTTTTAAAA [TGCATGCA_site6] | 8.06 ± 0.39

Row | Sequence | gcPBM binding intensity (ln)
47 | TATATATATATATACACATGCAAAAATTTTTAATTT [TGCATGCA_site82] | 9.47 ± 0.11
48 | TTTCTATATGGATTTGCACACATAAAAATGCTTATA [CACACA_site8751] | 9.075 ± 0.049
49 | TTATTTAACGTATTCTCACACATATATATATATAAT [CACACA_site5226] | 8.01 ± 0.51
50 | TCTTTAATGATGTGTACACAAGAAAACATTGTTAAG [CACACA_site5299] | 8.13 ± 0.59
51 | TAGAAGCATCATTTTACACACATGCAAATGTAAAAT [CACACA_site1893] | 8.12 ± 0.77
52 | AAAAATAAGAGCGTAGCACACACGCATTTTATAAAT [CACACA_site8147] | 7.5 ± 0.61
53 | CCTACAATTCGTAATACACACACATATATATATATA [CACACA_site9251] | 9.29 ± 0.25
54 | ACATTATATAAAATATGTACACATAAATAAATAAAT [XGTACX_site5031] | 8.02 ± 0.72
55 | TCATATTATAAAAAATGTACAAGGAAAAAATATATA [XGTACX_site337] | 7.99 ± 0.67
56 | TAATTTTGTAAAAATTGTACATATTTATCTTTTTAT [XGTACX_site4305] | 7.55 ± 0.26
57 | AAAAAAAAAAAAAACACACACATATAATATATTTAA [CACACA_site1337] | 8.11 ± 0.49
58 | AAAAAATTCAAAATCACACATAAAAAAGGACACATA [CACACA_site5972] | 7.92 ± 0.28
59 | CTTGGGCGTCATAATGAACACACAATTATATTATGA [CACACA_site9297] | 7.51 ± 0.36
60 | TTATTACCATATTTTGTACACACATCTTTATCTCAA [CACACA_site9054] | 8.23 ± 0.64
61 | ATATATACAAATCCTTTTTTCCAAGATGGAAAAAGA [CACACA_negctrl_site382] | 7.58 ± 0.53
62 | AAAATAATAAATAACGCATGCGTGTGCATTTTATTC [TGCATGCA_site898] | 9.46 ± 0.042
63 | ATTATATAATCTATATGTACATATATATATATATAT [XGTACX_site4970] | 9.51 ± 0.56
64 | TATATATAAGCGCATGCACACGCAAAGGTATATAAA [CACACA_site8107] | 7.95 ± 0.49
65 | ATAATAATATTATTTTGTACATATGTGCTTATTTAT [XGTACX_site5540] | 8.375 ± 0.035
66 | AGTAATAAGTAATTTACACACATATTATAGCATCAC [CACACA_site6971] | 7.7 ± 0.5
67 | TTTTGTCAACATTTTTATATTAGGTCTTGAACGATT [GTGCAC_negctrl_site72] | 7.59 ± 0.61
68 | GTATAATTTAAAAAGTGTACATAAAGTTTTTATTAA [XGTACX_site1090] | 7.92 ± 0.24
69 | ATATATATGGTCATTTGTACATATCGTGAGAGCTGC [XGTACX_site4117] | 7.82 ± 0.67

Row | Sequence | gcPBM binding intensity (ln)
70 | ATATAACATAATGGATGTACATGTATAAATATAAAA [XGTACX_site8228] | 8.19 ± 0.54
71 | AGAATCACCAAATATGTACACACCTTAACATGTTTA [CACACA_site2068] | 8.06 ± 0.64
72 | TATATTATAAATTAATGTACGTAATTTTTTTTTTTT [XGTACX_site2500] | 7.64 ± 0.21
73 | TTTTTTTTTTACTTCACACATATACATTTATATTTA [CACACA_site4385] | 8.14 ± 0.67
74 | TAAACATACAGATACACACACACACCCACAGAGACA [CACACA_site4429] | 8.24 ± 0.28
75 | TAAATGTGTATATATTGTACAAATATTAATACATAC [XGTACX_site8102] | 7.91 ± 0.27
76 | AAATTGTTAAAAAGAAGTACATTCTTTTATTTCTTA [XGTACX_site540] | 7.5 ± 0.4
77 | AAAGAACTTAATGCTGCACACAAAAAAAAGGAAAAA [CACACA_site8375] | 8.84
78 | ATAATGAAGACTTTTTTACACACTTCATATATTATA [CACACA_site8630] | 8.1 ± 0.54
79 | TGATATTTTTCCATAGTGCAAAATATAGTAATGTAT | 10.4 ± 0.3
80 | TTACATACATACAAGTGTACGCATATATTAATATTA [XGTACX_site4006] | 8 ± 0.26
81 | TTTAACATTTCAGATGTGCACATTTTCCGAACCAGT | 9.865 ± 0.021
82 | ATATGTACAAGTTATACACACATGTACAGTTATATA [CACACA_site6706] | 7.98 ± 0.38
83 | AGAACGACTAAGCAGTGTACATTTTGTATATACAAT [XGTACX_site2831] | 7.67 ± 0.59
84 | ATGAATATAAAATATACACACTTATATATTGAATGA [CACACA_site4274] | 7.37 ± 0.61
85 | GTTAATTCATTAAGGACACACAAAAAAAAAAAAAAA [CACACA_site998] | 8.06 ± 0.67
86 | GATTAAATTTGACACTGTACAAAAAATAAAATGAGG [XGTACX_site504] | 8.2 ± 0.45
87 | AGTATACATATATATACACACACATATATATATATA [CACACA_site7883] | 9.43 ± 0.35
88 | CTTATATGAAGCCTCTTTATTCATAAATAAGAATAA [TGCATGCA_negctrl_site120] | 7.38 ± 0.39
89 | CCAACATAGAGGGGCACACACATATATACATAAAAA [CACACA_site1847] | 8.4 ± 0.21
90 | TTAACAAAATTTCCGTGTACGTAAATAAGAACATAG [XGTACX_site7200] | 8.36 ± 0.16

Source: the supplement of paper PMC11417369
